Measured values published in PubChem BioAssay AID488969 (Vanderbilt High Throughput Screening Facility, 2010).
In all, about 110,000 compounds were measured (“z-score”: median about -0.1, highest 2% from about 2 on). The list shows a part of the results. The source made the active and inactive calls.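 Rule for the calls: active = z-score in the third read window above 3 or below -3; inactive = the rest.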

target: Metabotropic glutamate receptor 8 (Rattus norvegicus) (UniProt P70579); assay: mGluR8 Gi/Go-coupled signaling modulation – cell-based, rat, thallium flux, HTS, primary screen (AID 488969); settings: HEK293 rat mGluR8, GIRK (G protein-gated inwardly rectifying potassium channel) thallium flux, FluoZin2; at 10 µM; stronger effect = higher value; submaximal glutamate (EC20) added with thallium
UniProt P70579, sequence (P70579 whole entry, looked up): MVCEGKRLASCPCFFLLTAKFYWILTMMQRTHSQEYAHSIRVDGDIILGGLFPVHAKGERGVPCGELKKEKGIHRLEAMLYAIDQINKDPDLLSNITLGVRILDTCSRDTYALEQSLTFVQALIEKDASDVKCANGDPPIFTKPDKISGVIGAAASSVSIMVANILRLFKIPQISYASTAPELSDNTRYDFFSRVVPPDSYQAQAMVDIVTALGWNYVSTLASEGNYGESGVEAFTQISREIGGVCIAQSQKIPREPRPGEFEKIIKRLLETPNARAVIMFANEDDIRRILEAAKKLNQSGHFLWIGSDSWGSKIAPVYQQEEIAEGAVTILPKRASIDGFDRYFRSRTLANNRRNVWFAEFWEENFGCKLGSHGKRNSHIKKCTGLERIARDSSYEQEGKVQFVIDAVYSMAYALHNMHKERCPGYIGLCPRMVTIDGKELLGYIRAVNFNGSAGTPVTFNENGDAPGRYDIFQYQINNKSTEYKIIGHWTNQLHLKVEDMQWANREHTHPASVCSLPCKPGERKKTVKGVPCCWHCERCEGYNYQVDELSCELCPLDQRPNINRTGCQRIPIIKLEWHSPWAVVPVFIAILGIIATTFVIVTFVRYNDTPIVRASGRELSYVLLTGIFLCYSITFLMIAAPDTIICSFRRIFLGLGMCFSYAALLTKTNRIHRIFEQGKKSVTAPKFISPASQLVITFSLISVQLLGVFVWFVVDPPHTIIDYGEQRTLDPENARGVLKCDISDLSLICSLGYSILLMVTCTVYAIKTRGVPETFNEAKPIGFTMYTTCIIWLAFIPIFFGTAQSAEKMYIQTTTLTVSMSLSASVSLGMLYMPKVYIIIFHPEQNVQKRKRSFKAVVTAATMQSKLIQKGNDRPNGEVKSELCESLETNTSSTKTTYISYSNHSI

SMILES | z-score
CCCN1C(=O)c2ccc(C(=O)Nc3nccs3)cc2C1=O | 0.115
CNC(=O)c1sc2nc(-c3ccc(OC)cc3)cn2c1C | -0.425
COC(=O)Cc1cc(=O)n2[nH]c(C)cc2n1 | -0.0303
CC(NC(=O)c1ccc(=O)oc1)c1ccccc1 (stereo not given) | 0.104
Cc1ccc(S(=O)(=O)NC(=O)NCc2ccc3c(c2)OCO3)cc1 | 0.502
CC(=O)N1CCc2cc(S(=O)(=O)N3CCOCC3)ccc21 | -0.00162
CCOc1cc(/C=N/Nc2nc(N3CCCC3)nc(N3CCCC3)n2)ccc1O | -0.549
CC(C)C(=O)O/N=C(\N)c1ccccn1 | -0.083
CSc1nc(Sc2cccc(Cl)c2)c2ccccc2n1 | 0.093
CCC(CC)C(=O)N=C1SC2CS(=O)(=O)CC2N1CCc1ccc(OC)cc1 (stereo not given) | 0.172
Nc1c(C(=O)NCc2ccc(F)cc2)c2nc3ccccc3nc2n1CCCN1CCOCC1 | -0.163
Cc1ccc(S(=O)(=O)Nc2nc3ccccc3s2)cc1 | -0.644
CCOC(=O)c1c(C)[nH]c(C)c1C(=O)CSc1nc2ccccc2n1CC | -0.111
COc1ccc(C(=O)NC(Oc2ccccc2)C(Cl)(Cl)Cl)cc1 (stereo not given) | -0.143
O=C(CSc1nnc(-c2cccnc2)n1Cc1ccco1)NCc1ccc2c(c1)OCO2 | -0.237
CS(=O)(=O)N(CC(=O)NCc1ccco1)Cc1ccc(Cl)cc1 | 1.22
O=C(c1ccc2c(c1)OCCO2)N1CCN(Cc2ccccc2)CC1 | -0.112
COC(=O)N/N=C/c1cn(Cc2c(Cl)cccc2Cl)c2ccccc12 | -0.175
CCOc1ccc(S(=O)(=O)N2Cc3ccccc3CC2C(=O)NCCCn2ccnc2)cc1 (stereo not given) | 0.0281
CC(C)(C)C1CCC(=NNC(=O)C(=O)NC2CCCCC2)CC1 (stereo not given) | 0.0263
CCOc1ccccc1C(C(=O)NC1CCCC1)N(Cc1ccco1)C(=O)CNC(=O)c1ccco1 (stereo not given) | -0.231
CCc1ccc(CCC(=O)Nc2nccs2)o1 | -0.0438
Cc1sc2nc(SCC(=O)NCc3ccco3)n(Cc3ccccc3)c(=O)c2c1C | -0.304
Cc1ccc(-c2[nH]nc(N)c2N=Nc2ccccc2C)cc1 | -0.563

SMILES | z-score
CC(OC1=CC(=O)CCC1)C(=O)c1ccccc1 (stereo not given) | -0.135
O=C1NC(c2cc3c(cc2Cl)OCO3)Oc2ccccc21 (stereo not given) | 0.154
CCCCN1CNC(=S)N(c2cc(C)ccc2C)C1 | -0.162
CC(C)OC(=O)N(C)c1ccc(C(O)(C(F)(F)F)C(F)(F)F)cc1 | -1.26
COc1ccc(-n2c(=O)[nH]cc(C(=O)Nc3ccc4c(c3)OCCO4)c2=O)cc1 | -0.488
CCOC(=O)C(NC(C)=O)(Nc1ccc(S(=O)(=O)Nc2onc(C)c2C)cc1)C(F)(F)F (stereo not given) | 0.0468
CCOc1ccc(NC(=O)CCC(=O)OC)cc1 | -0.125
COc1ccccc1OCCSc1ncnc2nc[nH]c12 | -0.266
CCOc1ccc(Oc2cc(C)nc(SC)n2)nn1 | 0.587
O=C(NCc1ccco1)C1(c2ccc(Br)cc2)CCCC1 | -0.492
CC(C)CC(=O)NC(=S)Nc1ccc(S(=O)(=O)Nc2nccs2)cc1 | -0.174
O=C1C2C(c3ccccc3)C=CC(c3ccccc3)C2C(=O)N1c1ccccn1 (stereo not given) | -0.247
Cc1ccc(/C(O)=C/C(=O)C(=O)NNC(=O)C(O)(c2ccccc2)c2ccccc2)cc1 | 2.44
CCc1nc2oc3ccccc3c(=O)c2c(=O)n1Cc1ccc(OC)cc1 | -0.634
Cc1cc(=O)oc2cc(OCCCN3C(=O)c4ccccc4C3=O)ccc12 | -0.345
C/C(CC(=O)NCc1ccco1)=N\NC(=O)Cc1cccc2ccccc12 | -0.268
CC1=NC(=O)C(N=Nc2ccccc2)N1c1ccccc1 (stereo not given) | 1.78
Cc1nc(-c2cccc(NS(=O)(=O)c3cccc4ccccc34)c2)cs1 | -0.314
O=C1C2CC=C(Cl)CC2C(=O)N1CCCCCCN1C(=O)C2CC=C(Cl)CC2C1=O (stereo not given) | 0.369
CSCCC(NC(=O)c1ccc(Cl)cc1)C(=O)OCC(=O)Nc1cc(Cl)ccc1C (stereo not given) | -0.211
CCOc1ccc(N2CC(C(=O)Nc3ccc(S(=O)(=O)Nc4ncccn4)cc3)CC2=O)cc1 (stereo not given) | 0.292
COc1cc(/C=N/c2oc(-c3ccccc3)cc2C#N)ccc1O | -0.17
Cc1cccc(C2Nc3ccccc3C(=O)N2c2ccc(F)cc2)n1 (stereo not given) | -0.433
O=C(O)C1CCCCN1S(=O)(=O)c1ccc2ccccc2c1 (stereo not given) | -0.217

SMILES | z-score
Cc1nc2ccc(NC(=O)CCS(=O)(=O)c3ccccc3)cc2s1 | -0.000116
O=C(Nc1ccc(N2CCCCC2)cc1)c1cccnc1 | -0.0608
O=C(NC1CCCCCC1)c1ccc(S(=O)(=O)NCc2ccco2)cc1 | -0.158
CCc1ccc(NC(=O)Cn2nc(C(F)(F)F)c3c2CCC3)cc1 | 0.078
Cc1c(C(=O)Oc2ccc(-c3cnc4ccccc4n3)cc2)cccc1[N+](=O)[O-] | 0.413
Cc1ccc(-n2ncc3c(N4CCC5(CC4)OCCO5)ncnc32)c(C)c1 | -0.17
Cn1nnnc1SCc1cc(=O)n2ccsc2n1 | -0.651
Cc1c(Nc2nc(-c3ccc(Cl)cc3)cs2)c(=O)n(-c2ccccc2)n1C | -2.12
CC1(C)N(OCc2ccccc2)C(=O)C(=O)N(OCc2ccccc2)C1(C)C | -0.0501
CN(C)CCCn1c(SCC(=O)N2c3ccccc3Sc3ccccc32)nc2ccccc2c1=O | -0.356
CN(CCO)c1nc(N)c2c(N)nc3c(c2c1C#N)CC(=O)N3C1CCCC1 | -0.233
O=C(NCc1ccco1)c1n[nH]c(=O)c2ccccc12 | 1.16
O=C(COC(=O)c1ccc(Cl)c(S(=O)(=O)N2CCc3ccccc3C2)c1)Nc1ncc(Cl)cc1Cl | 0.139
CCOn1c(SC(C)C)nc2ccccc2c1=O | 1.92
CCOC(=O)CCc1c(C)c(C#N)c2nc3ccccc3n2c1-n1ccnc1 | 0.103
CCN1CCCC1CNC(=O)CSCc1nc(-c2ccccc2C)oc1C (stereo not given) | active: 4.01
Cc1c(NC(=O)C(C)Oc2ncnc3ccccc23)c(=O)n(-c2ccccc2)n1C (stereo not given) | -0.431
COc1cc(NC(=O)c2ccc(Cl)cc2)c(OC)cc1Cl | 1.1
O=C(c1cccc(S(=O)(=O)N2CCOCC2)c1)N1CCCCCC1 | 0.38
O=C(NC(=S)N1CCN(c2c(Cl)cccc2[N+](=O)[O-])CC1)c1cccs1 | active: -4.63
CCCS(=O)(=O)N1CCCC(C(=O)NCC2CCCO2)C1 (stereo not given) | 0.0279
COCCCNC(NC(=O)c1ccc(Br)cc1)C(Cl)(Cl)Cl (stereo not given) | -0.186
